According to PubChem BioAssay AID720709 (National Center for Advancing Translational Sciences (NCATS), 2013):
The whole screen tested about 360,000 compounds, of which about 520 (0.14%) were called active. Inconclusive results, whose numbers are uncertain, are shown with a selection of clear calls. The call rests on the fitted dose curve; in most records, active means well fitted inhibition curve with a large enough effect; inconclusive means small, poorly fitted or top-dose-only effect; inactive means no such curve, though single readings can be large or run the other way. No potency is given beside an inconclusive call; the fits are too rough.
Further: nearly all actives have a fitted effect of over 50% in size.
Potency means the concentration at half of the fitted maximal effect; tags describe the fitted curve by direction and shape.
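Wherever activity change, negative = inhibition is given: plate controls were vehicle for no effect and positive control for full effect.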

The molecules below were run against Rap guanine nucleotide exchange factor 3 (Homo sapiens) (UniProt O95398) (assay: qHTS for Antagonist of cAMP-regulated guanine nucleotide exchange factor 3 (EPAC1): primary screen). Conditions: EPAC1 GEF assay, Rap1b-BODIPY-GDP exchange fluorescence; activity change, negative = inhibition: at 115 µM (top of the series).
Sequence of UniProt O95398 (O95398 whole entry, looked up): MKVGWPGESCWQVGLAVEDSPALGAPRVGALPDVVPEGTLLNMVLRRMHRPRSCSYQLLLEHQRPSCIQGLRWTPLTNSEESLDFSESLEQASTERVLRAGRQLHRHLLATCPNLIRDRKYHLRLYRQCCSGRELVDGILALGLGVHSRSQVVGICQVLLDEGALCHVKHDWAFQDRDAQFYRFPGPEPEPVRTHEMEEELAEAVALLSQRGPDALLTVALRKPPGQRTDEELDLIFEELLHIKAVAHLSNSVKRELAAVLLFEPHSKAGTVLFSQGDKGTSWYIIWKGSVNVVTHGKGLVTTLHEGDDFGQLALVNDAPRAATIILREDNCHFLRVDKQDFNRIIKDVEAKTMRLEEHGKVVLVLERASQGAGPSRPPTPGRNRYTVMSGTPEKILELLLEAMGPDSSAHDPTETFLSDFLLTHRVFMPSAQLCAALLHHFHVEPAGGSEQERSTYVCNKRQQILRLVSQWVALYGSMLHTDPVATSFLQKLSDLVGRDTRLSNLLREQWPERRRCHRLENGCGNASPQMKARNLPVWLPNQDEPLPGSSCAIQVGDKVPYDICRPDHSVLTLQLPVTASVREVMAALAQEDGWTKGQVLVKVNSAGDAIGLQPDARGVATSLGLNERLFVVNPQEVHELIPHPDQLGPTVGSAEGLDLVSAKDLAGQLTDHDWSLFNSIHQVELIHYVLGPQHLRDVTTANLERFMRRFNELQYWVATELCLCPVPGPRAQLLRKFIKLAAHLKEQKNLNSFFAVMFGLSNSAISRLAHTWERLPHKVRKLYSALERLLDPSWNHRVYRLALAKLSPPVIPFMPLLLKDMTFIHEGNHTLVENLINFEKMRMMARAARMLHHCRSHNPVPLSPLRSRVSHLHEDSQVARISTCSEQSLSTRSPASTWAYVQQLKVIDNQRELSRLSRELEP
`O=c1cc(-c2ccc(O)cc2)oc2ccc3ccccc3c12` was tested, and the Potency was “inactive”.
With `CCOc1ccc(C(=O)COC(=O)CNC(=O)C2CCCCC2)cc1` the Potency was inconclusive [inhibitor, single point].
For `COc1ccc(N(CC(=O)O)S(=O)(=O)c2ccc(C)cc2)cc1Cl`, the Potency was inconclusive [inhibitor, partial curve].
For `COc1cc(OC)cc(-c2nnc(NC(=O)c3ccc4c(c3)OCCO4)o2)c1`, the Potency was inconclusive [inhibitor, single point].
With `CC(C)(C)CC(=O)Nc1nc(C(N)Cc2ccc(C(F)(F)F)cc2)cs1` (stereo not given) the Potency was “inactive”.
For `O=c1nc(SCc2ccc(Cl)cc2)nc(-c2ccccc2)[nH]1`, the Potency was inconclusive [inhibitor, single point].
With `NC(=O)CC(NC(=O)Cc1ccc(Br)cc1)c1ccc(N2CCC(Br)CC2)c([N+](=O)[O-])c1` (stereo not given) the Potency was inconclusive [inhibitor, partial curve].
In the case of `COc1ccc(NC(=O)NC(c2ccccc2)c2ccccc2)c(OC)c1`, the Potency is reported as inconclusive [inhibitor, single point].
With `O=C1CC(Nc2ccc(N3CCOCC3)cc2)C(=O)N1c1cccc(C(F)(F)F)c1` (stereo not given) the Potency was inconclusive [inhibitor, partial curve].
For `Cc1cc(-c2csc3nc[nH]c(=S)c23)cc(C)c1C`, the Potency was “inactive”.
For `COc1cc(C2(c3ccc(O)c(OC)c3)C(=O)N(C)c3ccc(C)cc32)ccc1O`, the activity change, negative = inhibition was inconclusive: -17% [inhibitor].
`CCN(Cc1ccc(NC(C)=O)cc1)CC1CCCN(CCc2cccc(OC)c2)C1` (stereo not given) was tested, and the Potency was inconclusive [inhibitor, single point].
For `CC(=O)c1ccc(NC(=O)c2ccc3nc(-c4ccco4)c(-c4ccco4)nc3c2)cc1`, the Potency was inconclusive [inhibitor, partial curve].
With `COc1ccc(NS(=O)(=O)c2ccc3c(c2)[C@H]2C=CC[C@H]2[C@@H](c2ccc(C(=O)O)cc2)N3)cc1` the Potency was inconclusive [inhibitor, full curve].
For `O=C1C=C(NCc2ccccc2)c2ccccc2C1=O`, the Potency was inconclusive [inhibitor, full curve, poor fit].
In the case of `COC(=O)c1ccc(C2NC(=O)c3ccccc3O2)cc1` (stereo not given), the Potency is reported as inconclusive [inhibitor, single point].
For `CC(=O)c1c(C)[nH]c(C2=NNC(=NCc3ccccc3)SC2)c1C`, the Potency was inconclusive [inhibitor, partial curve].
With `CCC(=O)Oc1ccc2c(c1)O/C(=C\c1ccco1)C2=O` the Potency was inconclusive [inhibitor, full curve, poor fit].
In the case of `Oc1ccc(-c2cn3c(n2)SCC3)cc1O`, the Potency is reported as inconclusive [inhibitor, partial curve].
`CCc1ccccc1NC(=O)CN(C)Cc1c(O)ccc2ccccc12` was tested, and the Potency was “inactive”.
With `COc1cc2c(cc1OC)C(c1cc(Br)ccc1F)N(C(=O)CCl)CC2` (stereo not given) the Potency was inconclusive [inhibitor, full curve].
With `Cc1cccc(Cn2cc(SCC(=O)Nc3nccs3)c3ccccc32)c1` the Potency was inconclusive [inhibitor, single point].
With `COC(=O)c1sccc1NC(=O)Nc1cccc(OC)c1` the Potency was “inactive”.
`CN(C)C(=O)C[C@@H]1C=C[C@@H](NC(=O)C2CCC2)[C@@H](CO)O1` was tested, and the Potency was “inactive”.
`Cc1ccc(C(=O)NC(=O)OCCn2c(C)cnc2[N+](=O)[O-])cc1` was tested, and the Potency was inconclusive [inhibitor, partial curve, poor fit].
With `Cn1c(SCC(=O)N/N=C/C=C\c2ccco2)nc2ccccc21` the Potency was inconclusive [inhibitor, single point].
With `Cc1c(C(=O)O)cccc1-c1ccc(/C=N/Nc2ccc(Br)cc2)o1` the Potency was inconclusive [inhibitor, partial curve].
In the case of `CCc1ccc(/C=C2/C(=O)NC(=O)N2C(C)=O)cc1`, the Potency is reported as inconclusive [inhibitor, full curve, poor fit].
With `Cc1cc(C(=O)CSc2nnnn2C)c(C)n1Cc1ccco1` the Potency was “inactive”.
`COc1ccc2c(c1)[C@H]1[C@H](CO2)[C@H](c2ccccc2)[C@]2(C)C(=O)Nc3ccc(Br)cc3C(=O)N12` was tested, and the Potency was inconclusive [inhibitor, single point].
`COc1cc(NC(=O)COc2ccccc2[N+](=O)[O-])ccc1NC(=O)c1cccs1` was tested, and the Potency was inconclusive [inhibitor, single point].
`CC(C)(C)OC(=O)Nc1ncnc2c1ncn2C1OC(CO)C2OC(C)(C)OC21` (stereo not given) was tested, and the Potency was inconclusive [inhibitor, single point].
For `Cc1c2cnn(-c3ccccc3)c(=O)c2c(C)n1CCCC(=O)NCCN1CCN(C)CC1`, the Potency was inconclusive [inhibitor, full curve, poor fit].
`Cc1ccc(S(=O)(=O)N2C[C@H]3[C@H]4C(=O)N(c5ccccc5)C(=O)[C@H]4CC(=O)[C@H]3[C@@H]2c2ccc(Cl)cc2)cc1` was tested, and the Potency was inconclusive [inhibitor, single point].
With `Cc1ccc(-c2noc(-c3cccs3)n2)cc1` the Potency was “inactive”.
`COc1cc(NC(=S)N2CCC(C(O)(c3ccccc3)c3ccccc3)CC2)cc(OC)c1` was tested, and the Potency was “inactive”.
For `CN(CC(=O)Nc1ccc(Cl)cc1)C(=O)CCC1CCCC1`, the Potency was inconclusive [inhibitor, partial curve].
`O=[N+]([O-])c1ccccc1C1Nc2cccc3cccc(c23)N1` was tested, and the Potency was inconclusive [inhibitor, single point].
`Cc1ccc(C2c3c(oc4ccccc4c3=O)C(=O)N2c2nnc(C(C)C)s2)o1` (stereo not given) was tested, and the Potency was inconclusive [inhibitor, full curve, poor fit].
`CC(=O)Nc1ccc(S(=O)(=O)NCC(=O)OCc2cc(=O)oc3ccc4ccccc4c23)cc1` was tested, and the Potency was inconclusive [inhibitor, single point].
`Cc1ccc(C)c(-n2c3nc(=O)[nH]c(=O)c-3cc3cc([N+](=O)[O-])ccc32)c1` was tested, and the Potency was active: 56.2 µM.
In the case of `NS(=O)(=O)c1ccc(NC(=O)Cc2c(F)cccc2Cl)cc1`, the Potency is reported as “inactive”.
With `COc1ccc(C(=O)c2ccc([N+](=O)[O-])cc2Cl)cc1` the Potency was inconclusive [inhibitor, full curve, poor fit].
In the case of `CCC(=O)OC1(C)C(=O)C2=COC(c3ccc(OC)cc3)=CC2=C(Br)C1=O` (stereo not given), the Potency is reported as inconclusive [inhibitor, partial curve].
With `NC(=O)c1ccccc1OCC(=O)Nc1cccnc1Cl` the Potency was inconclusive [inhibitor, single point].
`COc1ccc(S(=O)(=O)NCc2ccc(C(=O)NCCN(C)Cc3ccccc3)cc2)cc1` was tested, and the Potency was “inactive”.
For `CN(C)CCOc1ccc(C(C)(C)c2ccccc2)cc1`, the Potency was “inactive”.
With `COc1cccc(CNC(=O)c2nnn(CC(=O)Nc3ccc(Br)cc3)c2N)c1` the Potency was inconclusive [inhibitor, partial curve, poor fit].
For `O=C1NC(=S)NC(=O)C1Nc1ccc(Cl)cc1`, the activity change, negative = inhibition was inconclusive: -18.9% [inhibitor].
`COc1ccc(O)c(/C=N/n2c(-c3ccco3)csc2=Nc2cccnc2)c1` was tested, and the Potency was inconclusive [inhibitor, partial curve].
`O=C(/C=C/c1cccs1)NC(=S)Nc1ccccc1` was tested, and the Potency was inconclusive [inhibitor, partial curve, poor fit].
`CCOc1ccc(C(=O)NCCC(=O)N2CCC3(CC2)NCCc2[nH]cnc23)cc1` was tested, and the Potency was inconclusive [inhibitor, single point].
`CC(=O)Nc1ccc(-c2ccnc3c2CC(C(=O)Nc2ccc(Cl)c(C(F)(F)F)c2)O3)cc1` (stereo not given) was tested, and the Potency was inconclusive [inhibitor, partial curve].
With `CC1(C(=O)NS(=O)(=O)c2cccc(Cl)c2)CCN1C(=O)CCc1cccs1` (stereo not given) the Potency was “inactive”.
With `COc1cc(/C=C/[N+](=O)[O-])ccc1OCc1cccc(C(=O)O)c1` the Potency was inconclusive [inhibitor, full curve].
With `N#C/C(=C(/O)CCl)c1nc2c(s1)CCc1ccccc1-2` the Potency was inconclusive [inhibitor, partial curve].
With `Cc1nn(C)c2ncc(C(=O)c3cc(F)ccc3O)cc12` the Potency was “inactive”.
In the case of `CC(C)CN(CC(C)C)CC(O)CN(c1ccccc1)S(=O)(=O)c1ccccc1[N+](=O)[O-]` (stereo not given), the Potency is reported as inconclusive [inhibitor, partial curve, poor fit].
For `c1ccc(-c2ccccc2OCCOCCN2CCOCC2)cc1`, the Potency was “inactive”.
For `O=C(CSc1cc(Cl)ccc1Cl)NCCN1C(=O)CSC1=O`, the Potency was “inactive”.
For `CCCCN1CNC(=S)N(c2ccc(C(=O)OCC)cc2)C1`, the Potency was inconclusive [inhibitor, single point].
With `Cc1ccccc1C(=O)N1CCN(c2ccc(NC(=S)NC(=O)c3ccco3)cc2)CC1` the Potency was inconclusive [inhibitor, full curve, poor fit].
With `Cc1ccc(NC(=O)c2cc(-c3ccco3)nc3ccccc23)cc1S(=O)(=O)N1CCOCC1` the Potency was inconclusive [inhibitor, partial curve].
For `NS(=O)(=O)c1ccc(NC(=S)Nc2ccn(Cc3cccc4ccccc34)n2)cc1`, the Potency was inconclusive [inhibitor, partial curve].
In the case of `COc1ccc(-n2c(SCC(=O)Nc3ccccc3)nc(O)cc2=O)cc1`, the Potency is reported as inconclusive [inhibitor, partial curve, poor fit].
